14 sequences from the supplement of paper PMC12645437, “Orthogonal IMiD-Degron Pairs Induce Selective Protein Degradation in Cells” (ACS Chemical Biology, 2025) can be followed below.

Some of the results follow.
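Further: jurkat cells carrying a lentiviral library of mutant zinc finger degrons fused to EGFP plus mCherry, mCherry+ cells FACS sorted, degron abundance counted by next-generation sequencing.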

The target in the experiment is no compound (DMSO). The experiment can be described thus: log2 fold change of degron read counts, EGFP-low vs EGFP+ sorted cells; higher = lower degron-EGFP level without compound (poor expression or instability). The following applies: compound: DMSO control; 18 h.
Consider FWCPQCGAFFTQKGNLLRHIKL, for which the “log2 fold change of degron read counts” value was 1.73.
For FMCNQCGAQFTQKGNLLRHIKL, the “log2 fold change of degron read counts” value was -1.56.
With FCCEQCGAKFTQKGNLLRHIKL, the “log2 fold change of degron read counts” value was -1.17.
Then FLCNVCGAYFTQKGNLLRHIKL, with -0.283.
For FECDVCGASFTQKGNLLRHIKL, the “log2 fold change of degron read counts” value was -2.12.
Regarding FVCEICGARFTQKGNLLRHIKL, the “log2 fold change of degron read counts” value is -0.842.
For LHCNQCGFKCTQKGNLLRHIKL, the “log2 fold change of degron read counts” value is 0.391.
FNCDVCGANFTQKGNLLRHIKL: the “log2 fold change of degron read counts” value is -2.42.
For FYCDVCGAGFTQKGNLLRHIKL, the “log2 fold change of degron read counts” value was -0.694.
For the sequence FMCPVCGARFTQKGNLLRHIKL, the “log2 fold change of degron read counts” value was -0.509.
The result for FKCNVCGAAFTQKGNLLRHIKL reads -0.871; that for FSCPICGAMFTQKGNLLRHIKL, 0.537.
As for LYCEICGFTCTQKGNLLRHIKL, the “log2 fold change of degron read counts” value turned out to be 0.0527.
In the case of LMCEICGFICTQKGNLLRHIKL, the “log2 fold change of degron read counts” value worked out at 0.195.
